The source of these data is ChEMBL document CHEMBL4888484, “Replenishing the malaria drug discovery pipeline: Screening and hit evaluation of the MMV Hit Generation Library 1 (HGL1) against asexual blood stage Plasmodium falciparum ,using a nano luciferase reporter read-out” (2022).

Screen size: about 150,000 compounds; about 540 (0.36%) showed an effect of 50% or more. This is one part of the list.

For the test, the system named is Plasmodium falciparum. As to the kind of experiment: Primary screen in NF54 nanoGlo assay, in single point, at 2uM, 72h; a lower Z score goes with more inhibition. It counts as functional, Erythrocyte. Particulars: timepoint 72 hour.
As to `Cc1cc(CN(C)Cc2cnc3ccc(Br)cn23)no1`, the % Inhibition (in general, the drop in the measured response relative to a control, in per cent) is 26% and the Z score is listed as -2.61.
As to `CCC(CC)S(=O)(=O)NC(=O)c1nc(C)n2ccccc12`, the “% Inhibition” value is reported as -7% and the Z score is 0.61.
For `Cc1nc(C)c(CC(=O)Nc2ccc3c(c2)OCO3)c(=O)[nH]1` the same measures were 4% and -0.51.
For `O=C(Nc1ccc(F)cc1F)N[C@@H]1[C@@H]2CCO[C@@H]2[C@H]1N1CCCCC1` the same measures were 17% and -2.26.
As to `c1ccc(CC[C@@H]2NCCc3ccccc32)cc1`, the “% Inhibition” value is recorded as -17% and the Z score was determined as 2.22.
Regarding `N#C[C@@H](NC(=O)c1cc[nH]n1)c1ccc(OCc2ccccc2)cc1`, the “% Inhibition” value worked out at 29% and the Z score is recorded as -3.61.
Consider `CC1(F)CCN(C(=O)NCC2CC23CC3)C1` (centres undefined), for which the “% Inhibition” value is -2% and the Z score came out at 0.36.
As to `CCN(C(=O)c1cccc2c1OCC2)[C@H]1CCS(=O)(=O)C1`, the “% Inhibition” value is -5% and the Z score came to 0.86.
For the compound `Cc1ccc2c(c1)c(=O)n(-c1ccccc1Cl)c(=O)n2CC(=O)N1CCCC1`, the “% Inhibition” value is -17% and the Z score worked out at 1.9.
For `O=C(c1ccsc1)N1CCCc2ccccc21` the same measures were -3% and 0.35.
In the same order, the values of `Cc1cccc(NC(=O)CC(=O)N(C)CCCO)c1C` are 3% and -0.4.
As to `CCCn1cc(CN2C[C@@H](CO)[C@H](NC(C)=O)C2)c2ccccc21`, the “% Inhibition” value is reported as -13% and the Z score came out at 2.2.
In the same order, the values of `CCc1c[nH]c2ncnc(NCCc3cnc4c(Cl)cnn4c3)c12` are -20% and 2.76.
For `CC(C)c1nnc(NC(=O)c2ccc3ccccc3n2)s1`, the “% Inhibition” value is listed as -5% and the Z score amounted to 0.72.
In the case of `Cc1oc(-c2cccc(F)c2F)nc1CN(C)Cc1nc2ccc(F)cc2[nH]1`, the “% Inhibition” value is on record as -5% and the Z score worked out at 0.69.
In the same order, the values of `CC(C)N1C[C@H](Oc2ccccc2)[C@@H]1C1CCN(C(=O)c2ccc3ncccc3c2)CC1` are -18% and 2.08.
With `CC1(C)COc2ccc(C(=O)N3CC[C@](C)(O)C3)cc21`, the “% Inhibition” value was -4% and the Z score was found to be 0.71.
For `Cc1nc(-c2ccc(OC(=O)[C@H]3CCCN(C(N)=O)C3)cc2)cs1` the same measures were -7% and 0.86.
For the compound `Cc1nc(CC(N)=NOCC(=O)NC2CCCCCC2)cs1`, the “% Inhibition” value worked out at 31% and the Z score was -3.48.
With `COc1ccccc1N1CCN([C@H]2CN(C(=O)C(C)(C)C)C[C@@H]2O)CC1`, the “% Inhibition” value worked out at 1% and the Z score is -0.14.
In the same order, the values of `Cc1nc(CC(=O)N(C)c2ccccc2)cs1` are -4% and 0.75.
On to `O=C(Nc1ccc(O)c(C(F)(F)F)c1)c1cccc(-n2ccnc2)n1`, for which the “% Inhibition” value is -5% and the Z score amounted to 0.55.
In the same order, the values of `COc1ccc(CN(C)Cc2cnn(C)c2C)c(OC[C@@H](O)CN2CCCC2)c1` are -2% and 0.26.
For `CC1CCC(OCC(=O)NC[C@@H]2C[C@@H](OC(=O)COC3CCC(C)CC3)CN2C)CC1` (some centres undefined) the same measures were -12% and 1.35.
For `CCOC1(c2nc(CCNC(C)=O)no2)CCCC1` the same measures were -12% and 2.38.
Take `Cc1cc(CN2CCc3[nH]cnc3[C@@H]2c2cccn2-c2nccs2)on1`: the “% Inhibition” value is -11% and the Z score stood at 1.07.
Consider `CCCN1C=NS(=O)(=O)c2cc(C(=O)Nc3ccc(C)c(Cl)c3)ccc21`, for which the “% Inhibition” value is given as -2% and the Z score is recorded as 0.32.
In the case of `CCn1c(-c2cc(NC(=O)c3ccc(OC)c(OC)c3)[nH]n2)cc2c(OC)cccc21`, the “% Inhibition” value stood at 27% and the Z score is recorded as -3.02.
For `C[C@@](Cn1cccn1)(NC(=O)c1csc(Cl)c1)C(N)=O`, the “% Inhibition” value is 8% and the Z score is recorded as -0.99.
In the same order, the values of `COc1cccc(C(C)NCC2CCC(C(=O)N(C)C)O2)c1` (centres undefined) are -11% and 1.63.
For the compound `Cc1noc(C)c1CNC(=O)N1CC(F)C1`, the “% Inhibition” value is 0% and the Z score is given as 0.
In the same order, the values of `Cc1cc(=O)n(CC(=O)NCc2ccccc2Cl)c(N)n1` are -17% and 1.84.
For `COc1ncc(NS(=O)(=O)Cc2ccc(C)cc2)c(OC)n1` the same measures were -9% and 1.83.
In the same order, the values of `CCOC(=O)C1CCN(C(=O)c2cc(-c3ccccc3OC)nc3cc(-c4ccccc4)nn23)CC1` are -5% and 0.87.
For `CC(C)(C)c1ccc2oc(CNCC(=O)Nc3cnccn3)nc2c1`, the “% Inhibition” value is given as -8% and the Z score is listed as 1.47.
For `CCCOC[C@H]1CCN(C(=O)c2cc(=O)cc(C)[nH]2)C1` the same measures were -11% and 1.67.
Take `CC[C@@H](C(=O)NC(C)(C)C)N(C)Cc1cc[nH]n1`: the “% Inhibition” value is -6% and the Z score stood at 0.78.
For `CN(CC1CCC1)C1(C(N)=O)CCCC1` the same measures were -2% and 0.3.
In the same order, the values of `C[C@@H]1CN(Cc2nnnn2CC(=O)NCc2cccnc2N)C[C@H](C)O1` are -13% and 1.17.
For the compound `Cc1nn(-c2nc(CC(=O)Nc3nccs3)cs2)c(C)c1Cc1cccc(F)c1`, the “% Inhibition” value is -19% and the Z score was determined as 3.08.
`COc1ccccc1-c1nc(NCCc2ccccn2)nc2nn(-c3ccc(Cl)cc3)c(N)c12`: the “% Inhibition” value is -7% and the Z score is reported as 1.37.
As to `COc1nccc(N(C)C)c1NC(=O)[C@H](C)c1ccsc1`, the “% Inhibition” value is 2% and the Z score is reported as -0.21.
